# Source: PubChem BioAssay (Tox21)
# Values joined by “and” are separate entries in the source; they are usually repeats but may differ in a detail not shown here. Equal entries are not always repeated. The shares of active, inactive and inconclusive entries below differ from those in the screen. For some assays here: A potency beside an inconclusive call is a rough fit, not a confirmed value. Active and inactive are the calls of the source. Unless noted, the call rests on the fitted dose curve; in most records, active means well fitted curve in the direction sought with a large enough effect in the repeat runs; inconclusive means weak or mixed curves; inactive means no such curve, though single readings can be large; an effect the other way counts as inactive or inconclusive.
# Experiments:
# [1] = qHTS assay to identify small molecule antagonists of the androgen receptor (AR) signaling pathway - cell viability counter screen (AID 743033; further: nearly all actives have a fitted effect of over 45% in size; on activity change, negative = cytotoxicity: on the % scale 0 is the no-effect control and ±100 the full control effect); conditions: AR-bla HEK293 viability, CellTiter-Glo luminescence, 16 h; activity change, negative = cytotoxicity: at 58.5 µM (top of the series)
# [2] = target: Androgen receptor (Homo sapiens) (UniProt P10275); test: qHTS assay to identify small molecule antagonists of the androgen receptor (AR) signaling pathway (AID 743035; active means well fitted inhibition curve with a large enough effect in the signal ratio in the repeat runs, not every such curve was filed as active; inconclusive means weak or mixed curves, or effect the other way; inactive means no such curve, though single readings can be large or run the other way; the % refers to the signal ratio; on activity change, negative = inhibition: on the % scale 0 is the no-effect control and ±100 the full control effect); conditions: HEK293 AR-UAS-bla, R1881-stimulated, beta-lactamase FRET, 16 h; activity change, negative = inhibition: at 58.5 µM (top of the series) unless noted
# UniProt P10275, sequence (P10275 whole entry, looked up): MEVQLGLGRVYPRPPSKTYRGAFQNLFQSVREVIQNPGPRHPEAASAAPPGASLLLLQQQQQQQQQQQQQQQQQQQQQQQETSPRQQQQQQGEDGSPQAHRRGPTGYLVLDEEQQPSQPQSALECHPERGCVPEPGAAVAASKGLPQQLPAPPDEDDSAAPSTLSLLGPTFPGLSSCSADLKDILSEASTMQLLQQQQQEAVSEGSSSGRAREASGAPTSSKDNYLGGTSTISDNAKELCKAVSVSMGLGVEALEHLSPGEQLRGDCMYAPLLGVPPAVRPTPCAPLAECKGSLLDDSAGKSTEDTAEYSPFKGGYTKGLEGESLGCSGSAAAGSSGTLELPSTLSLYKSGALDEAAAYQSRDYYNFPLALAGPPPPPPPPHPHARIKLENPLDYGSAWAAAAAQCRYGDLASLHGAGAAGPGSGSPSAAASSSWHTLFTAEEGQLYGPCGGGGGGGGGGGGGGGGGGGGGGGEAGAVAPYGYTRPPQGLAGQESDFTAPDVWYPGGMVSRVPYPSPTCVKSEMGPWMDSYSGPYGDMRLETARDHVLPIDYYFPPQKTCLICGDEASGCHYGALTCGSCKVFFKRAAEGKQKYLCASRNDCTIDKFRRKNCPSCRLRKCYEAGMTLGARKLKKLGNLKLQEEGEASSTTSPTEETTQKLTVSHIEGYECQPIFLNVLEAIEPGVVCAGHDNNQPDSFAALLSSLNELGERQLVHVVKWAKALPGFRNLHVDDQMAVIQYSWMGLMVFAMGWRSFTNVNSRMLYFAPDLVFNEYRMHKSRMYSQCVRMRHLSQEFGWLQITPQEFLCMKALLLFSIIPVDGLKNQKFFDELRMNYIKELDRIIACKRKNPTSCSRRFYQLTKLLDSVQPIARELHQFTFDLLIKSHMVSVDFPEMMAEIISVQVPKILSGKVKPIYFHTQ
# Summary of the method: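 Fluorescence from a beta-lactamase FRET substrate (LiveBLAzer B/G, 2 h, room temperature) measured inhibition of R1881-stimulated signaling in GeneBLAzer AR-UAS-bla HEK293 cells exposed to compound for 16 h at 37C.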
# [3] = target: Androgen receptor (Homo sapiens) (UniProt P10275); test: qHTS assay to identify small molecule agonists of the androgen receptor (AR) signaling pathway (AID 743036; active means well fitted activation curve with a large enough effect in the signal ratio in the repeat runs, with a control signal flat, not every such curve was filed as active; inconclusive means weak or mixed curves, or effect the other way; inactive means no such curve, though single readings can be large or run the other way; the % refers to the signal ratio); conditions: HEK293 AR-UAS-bla GripTite, beta-lactamase FRET ratio, 16 h; activation: at 62.4 µM (top of the series) unless noted
# Summary of the method: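 Beta-lactamase under UAS control, stably integrated in HEK293 GripTite cells, reports receptor activation. After 16 h compound treatment, cells received FRET substrate for 2 h at room temperature before fluorescence reading.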
# [4] = qHTS assay to identify small molecule antagonists of the androgen receptor (AR) signaling pathway using the MDA cell line - cell viability counter screen (AID 743041; further: nearly all actives have a fitted effect of over 45% in size); conditions: MDA-kb2 viability, CellTiter-Fluor, 16 h, cells co-treated with R1881 androgen agonist; viability change, negative = cytotoxic: at 70.3 µM (top of the series) unless noted
# Summary of the method: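 MDA-kb2 AR-luc cells (MMTV-luciferase, AR/GR responsive) treated with compounds plus R1881 agonist for 16 h at 37C. CellTiter-Fluor added at 15.5 h; fluorescence read after 30 min in the same wells.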
# [5] = qHTS assay to identify small molecule antagonists of the thyroid receptor (TR) signaling pathway - cell viability counter screen (AID 743064); conditions: GH3.TRE-Luc viability, CellTiter-Fluor, 24 h; activity change, negative = cytotoxic: at 70.3 µM (top of the series) unless noted; further: nearly all actives have a fitted effect of over 50% in size
# Summary of the method: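 Compounds were tested on GH3.TRE-Luc cells in the presence of T3 at 1 nM final. Following 23.5 h at 37 °C, cell viability was quantified by CellTiter-Fluor.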
# [6] = target: Androgen receptor (Homo sapiens) (UniProt P10275); test: qHTS assay to identify small molecule antagonists of the androgen receptor (AR) signaling pathway using the MDA cell line (AID 743042; further: nearly all actives have a fitted effect of over 55% in size)
# Summary of the method: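 MDA-kb2 breast carcinoma cells carrying MMTV-luciferase (AR/GR responsive) were co-treated with compounds and the agonist R1881 for 16 h at 37C. Inhibition read as ONE-Glo luminescence; CellTiter-Fluor fluorescence measured in parallel for cytotoxicity.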
# Potency means the concentration at half of the fitted maximal effect; tags describe the fitted curve by direction and shape or compound fluorescence and quenching.
smiles,measurement,setting,value
C[C@@H]1C[C@H]2[C@@H]3C[C@H](F)C4=CC(=O)C=C[C@]4(C)[C@@]3(F)[C@@H](O)C[C@]2(C)[C@@]1(O)C(=O)CO,Potency,[1],"inconclusive: 0.0016 µM [cytotoxic, full curve, poor fit]"
CCCCC/C=C/C=C/C=O,Potency,[1],"inconclusive: 38.9 µM [cytotoxic, partial curve]"
CC(=O)[C@]1(O)Cc2c(O)c3c(c(O)c2[C@@H](O[C@H]2C[C@H](N)[C@H](O)[C@H](C)O2)C1)C(=O)c1ccccc1C3=O,Potency,[1],inconclusive: 26.8 µM [cytotoxic]
same,Potency,[2],active: 3.38 µM
same,Potency,[3],inconclusive: 0.952 µM [partial curve]
same,Potency,[4],active: 15 µM
same,Potency,[5],active: 0.119 µM
NC(N)=NN=C(/C=C/c1ccc([N+](=O)[O-])o1)/C=C/c1ccc([N+](=O)[O-])o1,Potency,[1],active: 9.52 µM
same,Potency,[2],active: 5.35 µM
same,Potency,[3],"inconclusive: 3.01 µM [activator, full curve]"
same,Potency,[4],active: 23.7 µM
same,Potency,[5],active: 1.68 µM
CN1CCc2cccc3c2[C@H]1Cc1ccc(O)c(O)c1-3,Potency,[1],"inconclusive: 26.8 µM [cytotoxic, single point] and active: 55.5 µM and inconclusive: 20.5 µM [cytotoxic, single point]"
same,Potency,[4],"inconclusive: 31.2 µM [cytotoxic, single point] and inconclusive: 25.6 µM [cytotoxic, single point]"
Nc1ccc(O)cc1,Potency,[1],"inconclusive: 22.7 µM [cytotoxic, partial curve]"
same,Potency,[3],"inconclusive: 12.3 µM [fluorescent, full curve, poor fit]"
same,Potency,[6],active: 5.96 µM and active: 12.2 µM and active: 25.3 µM
same,Potency,[5],active: 8.41 µM and active: 17.2 µM and active: 14.2 µM
CCN1/C(=C/C=C/c2sc3ccccc3[n+]2CC)Sc2ccccc21,Potency,[1],active: 3.01 µM
same,Potency,[4],active: 0.75 µM
same,Potency,[5],active: 1.68 µM
CC(C)(C)c1cc(C(C)(C)C)c(O)c(C(C)(C)C)c1,Potency,[1],"inconclusive: 30.9 µM [cytotoxic, full curve, poor fit]"
same,Potency,[5],"inconclusive: 77 µM [cytotoxic, single point]"
CN(C)CCOC(c1ccccc1)c1ccccc1 (tested in a mixture with another compound),Potency,[1],"inconclusive: 39.2 µM [cytotoxic, partial curve, poor fit]"
same,"activity change, negative = inhibition",[2],inconclusive: -36.1% [at 78.9 µM]
same,Potency,[5],inconclusive: 15.5 µM [cytotoxic]
CN1CCN(CCC(=O)N2c3ccccc3Sc3ccc(C(F)(F)F)cc32)CC1,Potency,[1],inactive
same,Potency,[5],active: 11.9 µM
O=C(Nc1ccc(Cl)c(Cl)c1)c1cc(Cl)cc(Cl)c1O,Potency,[1],active: 1.95 µM
same,Potency,[4],active: 12.2 µM
CC(C)c1ccc2c(c1)CC[C@H]1[C@](C)(CN)CCC[C@]21C,Potency,[1],active: 21.9 µM
same,Potency,[4],active: 24.3 µM
C[C@@H]1CN(CCCn2c3ccccc3c3ccccc32)C[C@H](C)N1,Potency,[1],inconclusive: 26.8 µM [cytotoxic]
same,Potency,[5],active: 10.6 µM
C[C@@]12C(=O)OC(=O)[C@]1(C)C1CCC2O1,Potency,[1],"inconclusive: 0.723 µM [cytotoxic, full curve, poor fit]"
same,Potency,[5],active: 2.27 µM
c1cc(N(CC2CO2)CC2CO2)ccc1OCC1CO1 (configuration not stated),Potency,[1],"inconclusive: 69.3 µM [cytotoxic, partial curve, poor fit]"
same,Potency,[4],"inconclusive: 68.7 µM [cytotoxic, single point]"
CNCCC(Oc1ccc(C(F)(F)F)cc1)c1ccccc1 (configuration not stated),Potency,[1],inconclusive: 15.1 µM [cytotoxic]
same,Potency,[4],active: 27.8 µM and active: 53.8 µM
same,Potency,[5],active: 11.9 µM and active: 9.56 µM
CCN(Cc1cccc(S(=O)(=O)O)c1)c1ccc(C(=C2C=CC(=[N+](CC)Cc3cccc(S(=O)(=O)O)c3)C=C2)c2ccc(O)cc2S(=O)(=O)[O-])cc1,Potency,[1],"inconclusive: 13.3 µM [cytotoxic, partial curve]"
same,Potency,[4],"inconclusive: 37.1 µM [cytotoxic, partial curve]"
same,Potency,[5],active: 37.1 µM
O=[N+]([O-])c1ccc(O)c2ncccc12,Potency,[1],active: 10.7 µM
same,Potency,[4],active: 11.9 µM
same,Potency,[5],active: 5.31 µM
